Article PMC4094278, “The Dictyostelium discoideum RACK1 orthologue has roles in growth and development” (Cell Communication and Signaling : CCS, 2014)
These are yes or no findings as the source states them, for the method shown. Some binding calls cover weakened binding; strength is not graded here. Where a sequence is shown, tags or fusion partners need not be part of it.

Assays:
Assay in all cases: two-hybrid; yeast Y190; DdRACK1 in pACT2 (GAL4 AD), G protein subunits in pAS2-1 (GAL4 BD); growth on SD/-Leu/-Trp/-His/+3AT plates and colony-lift β-galactosidase assay read at 1 to 6 h and after 24 h
[1] = target: T1, D. discoideum G protein α8-subunit fused to the GAL4 DNA-binding domain (pAS2-1) (D. discoideum) (UniProt P34046)
T1 sequence: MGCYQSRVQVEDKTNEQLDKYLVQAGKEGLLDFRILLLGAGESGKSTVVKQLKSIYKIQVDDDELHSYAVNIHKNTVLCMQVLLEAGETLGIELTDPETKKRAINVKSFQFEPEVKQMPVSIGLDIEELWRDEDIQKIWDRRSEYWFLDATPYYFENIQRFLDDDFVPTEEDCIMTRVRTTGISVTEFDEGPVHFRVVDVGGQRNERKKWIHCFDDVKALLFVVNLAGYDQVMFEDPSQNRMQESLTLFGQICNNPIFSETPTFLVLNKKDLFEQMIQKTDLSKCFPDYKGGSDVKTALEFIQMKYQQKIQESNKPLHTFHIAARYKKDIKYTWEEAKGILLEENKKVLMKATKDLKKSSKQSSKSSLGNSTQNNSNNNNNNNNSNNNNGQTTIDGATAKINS

[2] = target: T2, D. discoideum G protein α9-subunit fused to the GAL4 DNA-binding domain (pAS2-1) (D. discoideum) (UniProt Q54R41)
T2 sequence: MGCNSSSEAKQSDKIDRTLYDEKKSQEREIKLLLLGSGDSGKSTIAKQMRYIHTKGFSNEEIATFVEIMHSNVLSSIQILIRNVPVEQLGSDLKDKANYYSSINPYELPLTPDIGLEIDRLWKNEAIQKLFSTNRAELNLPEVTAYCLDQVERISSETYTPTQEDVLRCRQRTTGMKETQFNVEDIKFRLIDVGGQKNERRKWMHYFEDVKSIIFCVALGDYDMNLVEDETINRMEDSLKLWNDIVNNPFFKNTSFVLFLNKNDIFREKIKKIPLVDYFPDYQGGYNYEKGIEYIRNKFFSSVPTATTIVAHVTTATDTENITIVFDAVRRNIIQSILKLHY

[3] = target: T3, D. discoideum G protein β-subunit fused to the GAL4 DNA-binding domain (pAS2-1) (D. discoideum) (UniProt P36408)
T3 sequence: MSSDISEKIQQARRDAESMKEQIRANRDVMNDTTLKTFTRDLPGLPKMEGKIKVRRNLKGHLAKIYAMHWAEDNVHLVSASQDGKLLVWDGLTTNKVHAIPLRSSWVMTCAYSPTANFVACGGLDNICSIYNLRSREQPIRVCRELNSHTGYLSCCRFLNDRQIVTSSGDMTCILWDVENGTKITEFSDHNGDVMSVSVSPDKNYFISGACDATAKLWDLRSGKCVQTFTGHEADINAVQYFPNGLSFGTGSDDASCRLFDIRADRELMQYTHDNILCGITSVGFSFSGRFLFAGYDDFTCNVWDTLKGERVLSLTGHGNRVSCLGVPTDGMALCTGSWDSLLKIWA

[4] = target: T4, D. discoideum G protein α5-subunit fused to the GAL4 DNA-binding domain (pAS2-1) (D. discoideum) (UniProt P34043)
T4 sequence: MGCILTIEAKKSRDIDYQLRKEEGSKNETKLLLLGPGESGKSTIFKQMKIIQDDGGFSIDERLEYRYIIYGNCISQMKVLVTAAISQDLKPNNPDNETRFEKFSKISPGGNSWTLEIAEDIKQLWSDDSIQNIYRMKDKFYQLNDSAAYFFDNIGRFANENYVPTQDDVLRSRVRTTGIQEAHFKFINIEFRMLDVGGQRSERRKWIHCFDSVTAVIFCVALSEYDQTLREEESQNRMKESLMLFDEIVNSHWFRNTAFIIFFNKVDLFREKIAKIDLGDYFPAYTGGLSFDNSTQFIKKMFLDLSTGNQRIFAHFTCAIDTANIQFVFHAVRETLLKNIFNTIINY

[5] = target: T5, D. discoideum G protein α10-subunit fused to the GAL4 DNA-binding domain (pAS2-1) (D. discoideum) (UniProt Q55EP5)
T5 sequence: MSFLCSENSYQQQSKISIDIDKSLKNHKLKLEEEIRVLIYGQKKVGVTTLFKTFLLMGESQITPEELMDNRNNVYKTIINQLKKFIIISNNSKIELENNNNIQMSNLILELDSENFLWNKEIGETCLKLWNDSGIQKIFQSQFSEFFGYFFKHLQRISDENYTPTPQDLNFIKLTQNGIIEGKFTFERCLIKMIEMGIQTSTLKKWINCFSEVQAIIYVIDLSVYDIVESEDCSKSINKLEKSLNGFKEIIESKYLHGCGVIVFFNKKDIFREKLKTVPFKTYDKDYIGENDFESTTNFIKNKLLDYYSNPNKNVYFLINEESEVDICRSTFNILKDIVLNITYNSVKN

binding [1]: binds
binding [2]: no binding
binding [3]: binds
binding [4]: no binding
binding [5]: no binding
B1: DdRACK1 fused to the GAL4 activation domain (pACT2) (protein, UniProt P46800 1-329)
chain: MEQQKAPQVTYLEVGSLVGHNGFVTSIAVSPENPDTIISSSRDKTVMVWQLTPTDATSPGKAHRSLKGHSHFVQDVVISHDGQFALSGSWDNTLRLWDITKGVSTRLFKGHTQDVMSVAFSSDNRQIISGSRDATIKVWNTLGECKFTLEGPEAHQDWVSCIRFSPNTPTIVSGSWDNKVKIWDIKSFKCNHTLTDHTGYVNTVTISPDGSLCASGGKDTFACLWELSSGKPLYKLEARNTINALAFSPNKYWLSAATDDKIIIWDLLTKQVLAEIVPEVKEQAFDSKKKKESKPKAPACLSLAWSADGSVLYAGYNDGLIRVYKSSSQ
